{"source": "the supplement of paper PMC8728848", "assay_in_all_cases": "glycan array binding signal (z-score within array); higher = stronger binding", "settings_in_all_cases": "glycan notation: IUPAC condensed, linker removed", "key": {"[1]": {"biological_target": "Gal(a1-3)Gal(b1-3)GlcNAc(b1-2)Man", "in_short": "(§1)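 The binding signal is a Z-score computed within each array. Data were drawn from 3228 arrays in the Consortium for Functional Glycomics database, restricted to those with a known protein sequence. Scores were averaged over arrays of the same protein sequence at different concentrations or buffers, and over linkers, and negative values can be taken as non-binding.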"}, "[2]": {"biological_target": "Gal(a1-3)Gal(b1-3)GlcNAc(b1-2)Man(a1-3)[Gal(a1-3)Gal(b1-3)GlcNAc(b1-2)Man(a1-6)]Man(b1-4)GlcNAc(b1-4)GlcNAc", "in_short": "as §1"}, "[3]": {"biological_target": "Gal(a1-3)Gal(b1-3)GlcNAc(b1-3)GalNAc", "in_short": "as §1"}, "[4]": {"biological_target": "Gal(a1-3)Gal(b1-3)GlcNAc(b1-6)GalNAc", "in_short": "as §1"}, "[5]": {"biological_target": "Gal(a1-3)Gal(b1-3)[Fuc(a1-4)]GlcNAc(b1-2)Man(a1-3)[Gal(a1-3)Gal(b1-3)[Fuc(a1-4)]GlcNAc(b1-2)Man(a1-6)]Man(b1-4)GlcNAc(b1-4)GlcNAc", "in_short": "as §1"}, "Gal(a1-3)Gal(b1-4)Glc": {"biological_target": "Gal(a1-3)Gal(b1-4)Glc", "in_short": "as §1"}, "Gal(a1-3)Gal(b1-4)GlcNAc": {"biological_target": "Gal(a1-3)Gal(b1-4)GlcNAc", "in_short": "as §1"}, "[6]": {"biological_target": "Gal(a1-3)Gal(b1-4)GlcNAc(b1-2)Man", "in_short": "as §1"}, "[7]": {"biological_target": "Gal(a1-3)Gal(b1-4)GlcNAc(b1-2)Man(a1-3)[Gal(a1-3)Gal(b1-4)GlcNAc(b1-2)Man(a1-6)]Man(b1-4)GlcNAc(b1-4)GlcNAc", "in_short": "as §1"}, "[8]": {"biological_target": "Gal(a1-3)Gal(b1-4)GlcNAc(b1-3)GalNAc", "in_short": "as §1"}, "[9]": {"biological_target": "Gal(a1-3)Gal(b1-4)GlcNAc(b1-6)GalNAc", "in_short": "as §1"}, "[10]": {"biological_target": "Gal(a1-3)Gal(b1-4)[Fuc(a1-3)]GlcNAc", "in_short": "as §1"}, "[11]": {"biological_target": "Gal(a1-3)Gal(b1-4)[Fuc(a1-3)]GlcNAc(b1-2)Man(a1-3)[Gal(a1-3)Gal(b1-4)[Fuc(a1-3)]GlcNAc(b1-2)Man(a1-6)]Man(b1-4)GlcNAc(b1-4)GlcNAc", "in_short": "as §1"}, "Gal(a1-3)GalNAc": {"biological_target": "Gal(a1-3)GalNAc", "in_short": "as §1"}, "[12]": {"biological_target": "Gal(a1-3)[Gal(a1-4)]Gal(b1-4)GlcNAc", "in_short": "as §1"}, "[13]": {"biological_target": "Gal(a1-4)Gal(b1-3)GlcNAc(b1-2)Man(a1-3)[Gal(a1-4)Gal(b1-3)GlcNAc(b1-2)Man(a1-6)]Man(b1-4)GlcNAc(b1-4)GlcNAc", "in_short": "as §1"}, "Gal(a1-4)Gal(b1-4)Glc": {"biological_target": "Gal(a1-4)Gal(b1-4)Glc", "in_short": "as §1"}, "Gal(a1-4)Gal(b1-4)GlcNAc": {"biological_target": "Gal(a1-4)Gal(b1-4)GlcNAc", "in_short": "as §1"}, "[14]": {"biological_target": "Gal(a1-4)Gal(b1-4)GlcNAc(b1-2)Man(a1-3)[Gal(a1-4)Gal(b1-4)GlcNAc(b1-2)Man(a1-6)]Man(b1-4)GlcNAc(b1-4)GlcNAc", "in_short": "as §1"}, "[15]": {"biological_target": "Gal(a1-4)Gal(b1-4)GlcNAc(b1-3)Gal(b1-4)Glc", "in_short": "as §1"}, "Gal(a1-4)GlcNAc": {"biological_target": "Gal(a1-4)GlcNAc", "in_short": "as §1"}, "Gal(a1-6)Glc": {"biological_target": "Gal(a1-6)Glc", "in_short": "as §1"}, "Gal(b1-2)Gal": {"biological_target": "Gal(b1-2)Gal", "in_short": "as §1"}, "Gal(b1-3)Gal": {"biological_target": "Gal(b1-3)Gal", "in_short": "as §1"}, "Gal(b1-3)Gal(b1-4)GlcNAc": {"biological_target": "Gal(b1-3)Gal(b1-4)GlcNAc", "in_short": "as §1"}, "[16]": {"biological_target": "Gal(b1-3)Gal(b1-4)GlcNAc(b1-2)Man(a1-3)[Gal(b1-3)Gal(b1-4)GlcNAc(b1-2)Man(a1-6)]Man(b1-4)GlcNAc(b1-4)GlcNAc", "in_short": "as §1"}, "Gal(b1-3)GalNAc": {"biological_target": "Gal(b1-3)GalNAc", "in_short": "as §1"}, "[17]": {"biological_target": "Gal(b1-3)GalNAc(a1-3)[Fuc(a1-2)]Gal(b1-4)Glc", "in_short": "as §1"}, "[18]": {"biological_target": "Gal(b1-3)GalNAc(a1-3)[Fuc(a1-2)]Gal(b1-4)GlcNAc", "in_short": "as §1"}, "Gal(b1-3)GalNAc(b1-3)Gal": {"biological_target": "Gal(b1-3)GalNAc(b1-3)Gal", "in_short": "as §1"}, "[19]": {"biological_target": "Gal(b1-3)GalNAc(b1-3)Gal(a1-4)Gal(b1-4)Glc", "in_short": "as §1"}, "[20]": {"biological_target": "Gal(b1-3)GalNAc(b1-4)Gal(b1-4)Glc", "in_short": "as §1"}, "[21]": {"biological_target": "Gal(b1-3)GalNAc(b1-4)[Neu5Ac(a2-3)]Gal(b1-4)Glc", "in_short": "as §1"}, "Gal(b1-3)GlcNAc": {"biological_target": "Gal(b1-3)GlcNAc", "in_short": "as §1"}, "[22]": {"biological_target": "Gal(b1-3)GlcNAc(a1-3)Gal(b1-4)GlcNAc", "in_short": "as §1"}, "[23]": {"biological_target": "Gal(b1-3)GlcNAc(a1-6)Gal(b1-4)GlcNAc", "in_short": "as §1"}, "Gal(b1-3)GlcNAc(b1-2)Man": {"biological_target": "Gal(b1-3)GlcNAc(b1-2)Man", "in_short": "as §1"}, "[24]": {"biological_target": "Gal(b1-3)GlcNAc(b1-2)Man(a1-3)[Gal(b1-3)GlcNAc(b1-2)Man(a1-6)]Man(b1-4)GlcNAc(b1-4)GlcNAc", "in_short": "as §1"}, "[25]": {"biological_target": "Gal(b1-3)GlcNAc(b1-2)Man(a1-3)[Gal(b1-3)GlcNAc(b1-2)Man(a1-6)]Man(b1-4)GlcNAc(b1-4)[Fuc(a1-6)]GlcNAc", "in_short": "as §1"}, "[26]": {"biological_target": "Gal(b1-3)GlcNAc(b1-2)Man(a1-3)[GlcNAc(b1-4)][Gal(b1-3)GlcNAc(b1-2)Man(a1-6)]Man(b1-4)GlcNAc(b1-4)GlcNAc", "in_short": "as §1"}, "[27]": {"biological_target": "Gal(b1-3)GlcNAc(b1-2)[Gal(b1-3)GlcNAc(b1-6)]Man(a1-6)[Gal(b1-3)GlcNAc(b1-2)Man(a1-3)]Man(b1-4)GlcNAc(b1-4)GlcNAc", "in_short": "as §1"}, "[28]": {"biological_target": "Gal(b1-3)GlcNAc(b1-3)Gal(b1-3)GlcNAc", "in_short": "as §1"}, "[29]": {"biological_target": "Gal(b1-3)GlcNAc(b1-3)Gal(b1-4)Glc", "in_short": "as §1"}, "[30]": {"biological_target": "Gal(b1-3)GlcNAc(b1-3)Gal(b1-4)GlcNAc", "in_short": "as §1"}, "[31]": {"biological_target": "Gal(b1-3)GlcNAc(b1-3)Gal(b1-4)GlcNAc(b1-2)Man(a1-3)[Gal(b1-3)GlcNAc(b1-3)Gal(b1-4)GlcNAc(b1-2)Man(a1-6)]Man(b1-4)GlcNAc(b1-4)GlcNAc", "in_short": "as §1"}}, "note": "The list shows a part of the results."}
{"binder": "rCNL (Clitocybe nebularis), B2ZRS9 (protein) SITPGTYNITNVAYTNRLIDLTGSNPAENTLIIGHHLNKTPSGYGNQQWTLVQLPHTTIYTMQAVNPQSYVRVRDDNLVDGAALVGSQQPTPVSIESAGNSGQFRIKIPNLGLALTLPSDANSTPIVLGEVDETSTNQLWAFESVSAV", "values": [{"measurement": "glycan array binding signal (z-score)", "setting": "[1]", "value": -0.224}, {"measurement": "glycan array binding signal (z-score)", "setting": "[2]", "value": -0.252}, {"measurement": "glycan array binding signal (z-score)", "setting": "[3]", "value": -0.217}, {"measurement": "glycan array binding signal (z-score)", "setting": "[4]", "value": -0.212}, {"measurement": "glycan array binding signal (z-score)", "setting": "[5]", "value": -0.27}, {"measurement": "glycan array binding signal (z-score)", "setting": "Gal(a1-3)Gal(b1-4)Glc", "value": -0.199}, {"measurement": "glycan array binding signal (z-score)", "setting": "Gal(a1-3)Gal(b1-4)GlcNAc", "value": -0.098}, {"measurement": "glycan array binding signal (z-score)", "setting": "[6]", "value": -0.216}, {"measurement": "glycan array binding signal (z-score)", "setting": "[7]", "value": -0.218}, {"measurement": "glycan array binding signal (z-score)", "setting": "[8]", "value": -0.129}, {"measurement": "glycan array binding signal (z-score)", "setting": "[9]", "value": -0.175}, {"measurement": "glycan array binding signal (z-score)", "setting": "[10]", "value": -0.3}, {"measurement": "glycan array binding signal (z-score)", "setting": "[11]", "value": -0.266}, {"measurement": "glycan array binding signal (z-score)", "setting": "Gal(a1-3)GalNAc", "value": -0.295}, {"measurement": "glycan array binding signal (z-score)", "setting": "[12]", "value": -0.292}, {"measurement": "glycan array binding signal (z-score)", "setting": "[13]", "value": -0.187}, {"measurement": "glycan array binding signal (z-score)", "setting": "Gal(a1-4)Gal(b1-4)Glc", "value": -0.261}, {"measurement": "glycan array binding signal (z-score)", "setting": "Gal(a1-4)Gal(b1-4)GlcNAc", "value": -0.276}, {"measurement": "glycan array binding signal (z-score)", "setting": "[14]", "value": -0.182}, {"measurement": "glycan array binding signal (z-score)", "setting": "[15]", "value": -0.089}, {"measurement": "glycan array binding signal (z-score)", "setting": "Gal(a1-4)GlcNAc", "value": -0.286}, {"measurement": "glycan array binding signal (z-score)", "setting": "Gal(a1-6)Glc", "value": -0.302}, {"measurement": "glycan array binding signal (z-score)", "setting": "Gal(b1-2)Gal", "value": -0.296}, {"measurement": "glycan array binding signal (z-score)", "setting": "Gal(b1-3)Gal", "value": -0.303}, {"measurement": "glycan array binding signal (z-score)", "setting": "Gal(b1-3)Gal(b1-4)GlcNAc", "value": 0.348}, {"measurement": "glycan array binding signal (z-score)", "setting": "[16]", "value": 0.083}, {"measurement": "glycan array binding signal (z-score)", "setting": "Gal(b1-3)GalNAc", "value": -0.273}, {"measurement": "glycan array binding signal (z-score)", "setting": "[17]", "value": 0.203}, {"measurement": "glycan array binding signal (z-score)", "setting": "[18]", "value": 0.555}, {"measurement": "glycan array binding signal (z-score)", "setting": "Gal(b1-3)GalNAc(b1-3)Gal", "value": -0.224}, {"measurement": "glycan array binding signal (z-score)", "setting": "[19]", "value": -0.292}, {"measurement": "glycan array binding signal (z-score)", "setting": "[20]", "value": -0.287}, {"measurement": "glycan array binding signal (z-score)", "setting": "[21]", "value": -0.297}, {"measurement": "glycan array binding signal (z-score)", "setting": "Gal(b1-3)GlcNAc", "value": -0.29}, {"measurement": "glycan array binding signal (z-score)", "setting": "[22]", "value": -0.21}, {"measurement": "glycan array binding signal (z-score)", "setting": "[23]", "value": -0.268}, {"measurement": "glycan array binding signal (z-score)", "setting": "Gal(b1-3)GlcNAc(b1-2)Man", "value": -0.202}, {"measurement": "glycan array binding signal (z-score)", "setting": "[24]", "value": -0.059}, {"measurement": "glycan array binding signal (z-score)", "setting": "[25]", "value": -0.145}, {"measurement": "glycan array binding signal (z-score)", "setting": "[26]", "value": -0.194}, {"measurement": "glycan array binding signal (z-score)", "setting": "[27]", "value": -0.191}, {"measurement": "glycan array binding signal (z-score)", "setting": "[28]", "value": -0.054}, {"measurement": "glycan array binding signal (z-score)", "setting": "[29]", "value": -0.065}, {"measurement": "glycan array binding signal (z-score)", "setting": "[30]", "value": 0.002}, {"measurement": "glycan array binding signal (z-score)", "setting": "[31]", "value": -0.218}]}
